# Some of the results follow.
# Legend:
# Assay in all cases: glycan array binding signal (z-score within array); higher = stronger binding
# Conditions in all cases: glycan notation: IUPAC condensed, linker removed
# [1] = biological target: GlcNAc(b1-3)Gal(b1-4)Glc
# In short: (§1)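 Negative Z-scores can be read as non-binding. The Z-score is calculated within each array and then averaged across arrays of one protein sequence at different concentrations or buffers and across linkers. Arrays, 3228 in all, were curated from the Consortium for Functional Glycomics database and kept only where the protein sequence was available.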
# [2] = biological target: GlcNAc(b1-3)Gal(b1-4)GlcNAc
# In short: as §1
# [3] = biological target: GlcNAc(b1-3)Gal(b1-4)GlcNAc(b1-2)Man(a1-3)[GlcNAc(b1-3)Gal(b1-4)GlcNAc(b1-2)Man(a1-6)]Man(b1-4)GlcNAc(b1-4)GlcNAc
# In short: as §1
# [4] = biological target: GlcNAc(b1-3)Gal(b1-4)GlcNAc(b1-2)Man(a1-3)[GlcNAc(b1-3)Gal(b1-4)GlcNAc(b1-2)Man(a1-6)]Man(b1-4)GlcNAc(b1-4)[Fuc(a1-6)]GlcNAc
# In short: as §1
# [5] = biological target: GlcNAc(b1-3)Gal(b1-4)GlcNAc(b1-2)[GlcNAc(b1-3)Gal(b1-4)GlcNAc(b1-6)]Man(a1-6)[GlcNAc(b1-3)Gal(b1-4)GlcNAc(b1-2)Man(a1-3)]Man(b1-4)GlcNAc(b1-4)GlcNAc
# In short: as §1
# [6] = biological target: GlcNAc(b1-3)Gal(b1-4)GlcNAc(b1-3)Gal(b1-4)GlcNAc
# In short: as §1
# [7] = biological target: GlcNAc(b1-3)Gal(b1-4)GlcNAc(b1-3)Gal(b1-4)GlcNAc(b1-2)Man(a1-3)[GlcNAc(b1-3)Gal(b1-4)GlcNAc(b1-3)Gal(b1-4)GlcNAc(b1-2)Man(a1-6)]Man(b1-4)GlcNAc(b1-4)GlcNAc
# In short: as §1
# [8] = biological target: GlcNAc(b1-3)Gal(b1-4)GlcNAc(b1-3)Gal(b1-4)GlcNAc(b1-2)Man(a1-3)[GlcNAc(b1-3)Gal(b1-4)GlcNAc(b1-3)Gal(b1-4)GlcNAc(b1-2)Man(a1-6)]Man(b1-4)GlcNAc(b1-4)[Fuc(a1-6)]GlcNAc
# In short: as §1
# [9] = biological target: GlcNAc(b1-3)Gal(b1-4)GlcNAc(b1-3)Gal(b1-4)GlcNAc(b1-2)[GlcNAc(b1-3)Gal(b1-4)GlcNAc(b1-3)Gal(b1-4)GlcNAc(b1-6)]Man(a1-6)[GlcNAc(b1-3)Gal(b1-4)GlcNAc(b1-3)Gal(b1-4)GlcNAc(b1-2)Man(a1-3)]Man(b1-4)GlcNAc(b1-4)[Fuc(a1-6)]GlcNAc
# In short: as §1
# [10] = biological target: GlcNAc(b1-3)Gal(b1-4)GlcNAc(b1-3)Gal(b1-4)GlcNAc(b1-3)Gal(b1-4)GlcNAc(b1-2)Man(a1-3)[GlcNAc(b1-3)Gal(b1-4)GlcNAc(b1-3)Gal(b1-4)GlcNAc(b1-3)Gal(b1-4)GlcNAc(b1-2)Man(a1-6)]Man(b1-4)GlcNAc(b1-4)GlcNAc
# In short: as §1
# [11] = biological target: GlcNAc(b1-3)Gal(b1-4)GlcNAc(b1-3)Gal(b1-4)GlcNAc(b1-3)Gal(b1-4)GlcNAc(b1-2)Man(a1-3)[GlcNAc(b1-3)Gal(b1-4)GlcNAc(b1-3)Gal(b1-4)GlcNAc(b1-3)Gal(b1-4)GlcNAc(b1-2)Man(a1-6)]Man(b1-4)GlcNAc(b1-4)[Fuc(a1-6)]GlcNAc
# In short: as §1
# [12] = biological target: GlcNAc(b1-3)Gal(b1-4)GlcNAc(b1-3)Gal(b1-4)GlcNAc(b1-3)Gal(b1-4)GlcNAc(b1-2)[GlcNAc(b1-3)Gal(b1-4)GlcNAc(b1-3)Gal(b1-4)GlcNAc(b1-3)Gal(b1-4)GlcNAc(b1-6)]Man(a1-6)[GlcNAc(b1-3)Gal(b1-4)GlcNAc(b1-3)Gal(b1-4)GlcNAc(b1-3)Gal(b1-4)GlcNAc(b1-2)Man(a1-3)]Man(b1-4)GlcNAc(b1-4)[Fuc(a1-6)]GlcNAc
# In short: as §1
# [13] = biological target: GlcNAc(b1-3)Gal(b1-4)GlcNAc(b1-3)Gal(b1-4)GlcNAc(b1-3)Gal(b1-4)GlcNAc(b1-3)Gal(b1-4)GlcNAc(b1-2)Man(a1-3)[GlcNAc(b1-3)Gal(b1-4)GlcNAc(b1-3)Gal(b1-4)GlcNAc(b1-3)Gal(b1-4)GlcNAc(b1-3)Gal(b1-4)GlcNAc(b1-2)Man(a1-6)]Man(b1-4)GlcNAc(b1-4)GlcNAc
# In short: as §1
# [14] = biological target: GlcNAc(b1-3)Gal(b1-4)GlcNAc(b1-3)Gal(b1-4)GlcNAc(b1-3)Gal(b1-4)GlcNAc(b1-3)Gal(b1-4)GlcNAc(b1-2)Man(a1-3)[GlcNAc(b1-3)Gal(b1-4)GlcNAc(b1-3)Gal(b1-4)GlcNAc(b1-3)Gal(b1-4)GlcNAc(b1-3)Gal(b1-4)GlcNAc(b1-2)Man(a1-6)]Man(b1-4)GlcNAc(b1-4)[Fuc(a1-6)]GlcNAc
# In short: as §1
# [15] = biological target: GlcNAc(b1-3)Gal(b1-4)GlcNAc(b1-3)Gal(b1-4)GlcNAc(b1-3)Gal(b1-4)GlcNAc(b1-3)Gal(b1-4)GlcNAc(b1-2)[GlcNAc(b1-3)Gal(b1-4)GlcNAc(b1-3)Gal(b1-4)GlcNAc(b1-3)Gal(b1-4)GlcNAc(b1-3)Gal(b1-4)GlcNAc(b1-6)]Man(a1-6)[GlcNAc(b1-3)Gal(b1-4)GlcNAc(b1-3)Gal(b1-4)GlcNAc(b1-3)Gal(b1-4)GlcNAc(b1-3)Gal(b1-4)GlcNAc(b1-2)Man(a1-3)]Man(b1-4)GlcNAc(b1-4)[Fuc(a1-6)]GlcNAc
# In short: as §1
# [16] = biological target: GlcNAc(b1-3)Gal(b1-4)GlcNAc(b1-3)Gal(b1-4)GlcNAc(b1-3)GalNAc
# In short: as §1
# [17] = biological target: GlcNAc(b1-3)Gal(b1-4)GlcNAc(b1-3)GalNAc
# In short: as §1
# [18] = biological target: GlcNAc(b1-3)Gal(b1-4)GlcNAc(b1-3)[GlcNAc(b1-3)Gal(b1-4)GlcNAc(b1-3)]GalNAc
# In short: as §1
# [19] = biological target: GlcNAc(b1-3)Gal(b1-4)GlcNAc(b1-6)[Gal(b1-3)]GalNAc
# In short: as §1
# [20] = biological target: GlcNAc(b1-3)Gal(b1-4)GlcNAc(b1-6)[GlcNAc(b1-3)Gal(b1-3)]GalNAc
# In short: as §1
# [21] = biological target: GlcNAc(b1-3)Gal(b1-4)GlcNAc(b1-6)[GlcNAc(b1-3)]Gal(b1-4)GlcNAc
# In short: as §1
# [22] = biological target: GlcNAc(b1-3)GalNAc
# In short: as §1
binder,measurement,setting,value
rEtpA (Escherichia coli) (protein) MNRIYKLKFDKRRNELVVVSEITTGVGNAKATGSVEGEKSPRRGVRAMALSLLSGMMIMAHPAMSANLPTGGQIVAGSGSIQTPSGNQMNIHQNSQNMVANWNSFDIGKGNTVQFDQPSSSAVALNRVVGGGESQIMGNLKANGQVFLVNPNGVLFGEGASVSTSGFVASTRDIKNDDFMNRRYTFSGGQKAGAAIVNQGELTTNAGGYIVLAADRVSNSGTIRTPGGKTVLAASERITLQLDNGGLMSVQVTGDVVNALVENRGLVSARDGQVYLTALGRGMLMNTVLNVSGVVEASGMHRQDGNIVLDGGDSGVVHLSGTLQADNASGQGGKVVVQGKNILLDKGSNITATGGQGGGEVYVGGGWQGKDSNIRNADKVVMQGGARIDVSATQQGNGGTAVLWSDSYTNFHGQISAKGGETGGNGGRVETSSHGNLQAFGTVSASAKKGKAGNWLLDSADITIVNGSNVSKTETTQSPPHTQFAPTAAGSAVSNTSINNRLNNGTSVTILTHRTRTGTAQGGNITVNAAINKSNGSDVNLTLQAGGNITVNNSITSTEGKLNVNLSGARTSNGSITISNNANITTNGGDITVGTTNTSNRVNISINNTTLNASNGNIQLTGTGTDSGILFAGNNRLTASNIALTGNSTSGNAINLTGTATLNATNNITLTGSSTSGNAINLKGNNTLTASNITLTGESTSGNAINLTDTTGTTTLNATNNITMQGTRVQIKHSNITAGNFALNATVAGSEISNTTLTATNNINLAAKTNSASSGVYLKDARITSTNGSITANGTATANGKATHLDGNVTLNASNGRIKLTGNGHGSASGILFAGNNRLTASNIALTGNSTSGNAINLTGTATLNATNDITLTGSSTSGNAINLTGTATLNATNNITLTGSSTSGNAINLKGNNTLTASNITLTGESTSGNAINLTDTTGTTTLNATNNITMQGTRVQIKHSNITAGNFALNATVAGSEISNTTLTATNNINLAAKTNSASSGVYLKDARITSTNGSITANGTATANGKATHLDGNVTLNASNGRIKLTGNGHGSASGILFAGNNRLTASNIALTGNSTSGNAINLTGTATLNATNDITLTGSSTSGNAINLTGTATLNATNNITLTGSSTSGNAINLKGNNTLTASNITLTGESTSGNAINLTDTTGTTTLNATNNITMQGTRVQIKHSNITAGNFALNATVAGSEISNTTLTATNNINLAAKTNSASSGVYLKDARITSTNGSITANGTATANGKATHLDGNVTLNASNGRIKLTGNGHGSASGILFAGNNRLTASNIALTGNSTSGNAINLTGTATLNATNDITLTGSSTSGNAINLTGTATLNATNNITLTGSSTSGNAINLKGNNTLTASNITLTGESTSGNAINLTDTTGTTTLNATNNITMQGTRVQIKHSNITAGNFALNATVAGSEISNTTLTATNNINLAAKTNSASSGVYLKDARITSTNGSITTNGTATANGKATHLDGNVTLNASNGRIKLTGNGHGSASGILFAGNNRLTASNIALTGNSTSGNAINLTGTATLNATNDITLTGSSTSGNAINLTGTATLNATNNITLTGSSTSGNAINLKGNNTLTASNITLTGESTSGNAINLTDTTGTTTLNATNNITMQGTRVQIKHSNITAGNFALNATVAGSEISNTTLTATNNINLAAKTNSASSGVYLKDARITSTNGSITANGTAPANDNATYLDGNVTLNASNGSIKLTGNGNGSTSGILFAGNNTLTASNITLTGNSEVYWQKLGPEQKLISEEDLNSAVDHHHHHH,glycan array binding signal (z-score),[1],-0.338
same,glycan array binding signal (z-score),[2],-0.306
same,glycan array binding signal (z-score),[3],-0.424
same,glycan array binding signal (z-score),[4],-0.368
same,glycan array binding signal (z-score),[5],-0.332
same,glycan array binding signal (z-score),[6],-0.428
same,glycan array binding signal (z-score),[7],-0.311
same,glycan array binding signal (z-score),[8],-0.303
same,glycan array binding signal (z-score),[9],-0.348
same,glycan array binding signal (z-score),[10],-0.304
same,glycan array binding signal (z-score),[11],-0.338
same,glycan array binding signal (z-score),[12],-0.288
same,glycan array binding signal (z-score),[13],-0.353
same,glycan array binding signal (z-score),[14],-0.388
same,glycan array binding signal (z-score),[15],-0.164
same,glycan array binding signal (z-score),[16],-0.402
same,glycan array binding signal (z-score),[17],-0.351
same,glycan array binding signal (z-score),[18],-0.402
same,glycan array binding signal (z-score),[19],-0.336
same,glycan array binding signal (z-score),[20],-0.401
same,glycan array binding signal (z-score),[21],-0.396
same,glycan array binding signal (z-score),[22],-0.295

# Source: the supplement of paper PMC8728848
